This passage reports cell count results from the supplement of paper PMC4604168 (melanoma cell lines).

The other results are listed elsewhere or left out. Single values are uncertain, as repeats are few or missing.
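Note: cells treated in 1,536-well plates, then fixed and DAPI-stained, with nuclei counted from automated high-throughput microscope images.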

The subject of the first assay is WM115. In words: cell count relative to DMSO control; melanoma cells; higher = more viable cells. Particulars: library dose: standard library concentration; 72 h.
The compound `N#CC[C@H](C1CCCC1)n1cc(-c2ncnc3[nH]ccc23)cn1` [ruxolitinib] + Cc1ccc(NC(=O)c2cccc(N(C)C)c2)cc1NC(=O)c1ccc(O)cc1 [ZM336372] (first compound 5 µM, partner dose 10 µM) displayed a cell count of 154%. On the same count and under the same terms, the same measure for `Cc1cc(Nc2cc(N3CCN(C)CC3)nc(Sc3ccc(NC(=O)C4CC4)cc3)n2)n[nH]1` [Tozasertib] + CO[C@@H]1[C@H](N(C)C(=O)c2ccccc2)C[C@H]2O[C@]1(C)n1c3ccccc3c3c4c(c5c6ccccc6n2c5c31)C(=O)NC4 [Midostaurin] (first compound 0.03 µM, partner dose 0.4 µM): 47.5%. The same measure, in the same setting: next, `N#CC[C@H](C1CCCC1)n1cc(-c2ncnc3[nH]ccc23)cn1` [ruxolitinib] + COc1cc(Nc2ncc(F)c(Nc3ccc4c(n3)NC(=O)C(C)(C)O4)n2)cc(OC)c1OC [Tamatinib] (first compound 5 µM, partner dose 2 µM): 60.3%. The same measure, in the same setting: the same measure for `Cc1cc(Nc2cc(N3CCN(C)CC3)nc(Sc3ccc(NC(=O)C4CC4)cc3)n2)n[nH]1` [Tozasertib] + O=C(O)c1ccc(-c2c[nH]c3ncc(-c4ccccc4)cc23)cc1C1CCCC1 [GSK650394] (first compound 0.03 µM, partner dose 0.8 µM): 57.5%. `Cc1cc(Nc2cc(N3CCN(C)CC3)nc(Sc3ccc(NC(=O)C4CC4)cc3)n2)n[nH]1` [Tozasertib] + COc1cc(Nc2ncc(F)c(Nc3ccc4c(n3)NC(=O)C(C)(C)O4)n2)cc(OC)c1OC [Tamatinib] (first compound 0.03 µM, partner dose 2 µM) showed a cell count of 62.1%. The same measure, in the same setting: next, `Cc1cc(Nc2cc(N3CCN(C)CC3)nc(Sc3ccc(NC(=O)C4CC4)cc3)n2)n[nH]1` [Tozasertib] + Cn1cncc1[C@@](N)(c1ccc(Cl)cc1)c1ccc2c(c1)c(-c1cccc(Cl)c1)cc(=O)n2C [tipifarnib] (first compound 0.03 µM, partner dose 0.05 µM): 53.8%. In turn, `CC[C@]1(O)C[C@H]2CN(CCc3c([nH]c4ccccc34)[C@@](C(=O)OC)(c3cc4c(cc3OC)N(C=O)[C@H]3[C@@](O)(C(=O)OC)[C@H](OC(C)=O)[C@]5(CC)C=CCN6CC[C@]43[C@@H]65)C2)C1` [vincristine] + NC(=O)Nc1cc(-c2cccc(F)c2)sc1C(=O)N[C@H]1CCCNC1 [AZD7762] (first compound 0.0005 µM, partner dose 0.1 µM) had a cell count of 29.4%. Regarding `Cc1cc(Nc2cc(N3CCN(C)CC3)nc(Sc3ccc(NC(=O)C4CC4)cc3)n2)n[nH]1` [Tozasertib] + CN(C)S(=O)(=O)c1ccc2c(c1)/C(=C/c1cc3c([nH]1)CCCC3)C(=O)N2 [SU6656] (first compound 0.03 µM, partner dose 2 µM), the cell count is 39.5%. Regarding `N#CC[C@H](C1CCCC1)n1cc(-c2ncnc3[nH]ccc23)cn1` [ruxolitinib] + COc1cc2c(Oc3ccc4[nH]c(C)cc4c3F)ncnc2cc1OCCCN1CCCC1 [cediranib] (first compound 5 µM, partner dose 2 µM), the cell count was determined as 139%. On the same count and under the same terms, next, `CC[C@]1(O)C[C@H]2CN(CCc3c([nH]c4ccccc34)[C@@](C(=O)OC)(c3cc4c(cc3OC)N(C=O)[C@H]3[C@@](O)(C(=O)OC)[C@H](OC(C)=O)[C@]5(CC)C=CCN6CC[C@]43[C@@H]65)C2)C1` [vincristine] + COc1cc2c(Oc3ccc4[nH]c(C)cc4c3F)ncnc2cc1OCCCN1CCCC1 [cediranib] (first compound 0.0005 µM, partner dose 2 µM): 35.1%.

`CC[C@]1(O)C[C@H]2CN(CCc3c([nH]c4ccccc34)[C@@](C(=O)OC)(c3cc4c(cc3OC)N(C=O)[C@H]3[C@@](O)(C(=O)OC)[C@H](OC(C)=O)[C@]5(CC)C=CCN6CC[C@]43[C@@H]65)C2)C1` [vincristine] + O=C(Nc1cccc(Cl)c1)Nc1ncc(CCNc2ncnc3ccsc23)s1 [SNS314] (first compound 0.0005 µM, partner dose 0.004 µM) showed a cell count of 30.2%.

Another assay concerns WM1716. Described as above. The note with it: library dose: standard library concentration; 72 h.
`N#CC[C@H](C1CCCC1)n1cc(-c2ncnc3[nH]ccc23)cn1` [ruxolitinib] + O=C(O)c1ccc(-c2c[nH]c3ncc(-c4ccccc4)cc23)cc1C1CCCC1 [GSK650394] (first compound 5 µM, partner dose 0.8 µM) came in with a cell count of 73.7%.

`CC[C@]1(O)C[C@H]2CN(CCc3c([nH]c4ccccc34)[C@@](C(=O)OC)(c3cc4c(cc3OC)N(C=O)[C@H]3[C@@](O)(C(=O)OC)[C@H](OC(C)=O)[C@]5(CC)C=CCN6CC[C@]43[C@@H]65)C2)C1` [vincristine] + OCCn1cc(-c2cnc3nnn(Cc4ccc5ncccc5c4)c3n2)cn1 [PF04217903] (first compound 0.0005 µM, partner dose 5 µM) gave a cell count of 54.8%. Regarding `Cc1cc(Nc2cc(N3CCN(C)CC3)nc(Sc3ccc(NC(=O)C4CC4)cc3)n2)n[nH]1` [Tozasertib] + CC1(C)NC(=O)N(c2ccc([N+](=O)[O-])c(C(F)(F)F)c2)C1=O [nilutamide] (first compound 0.03 µM, partner dose 5 µM), the cell count was determined as 77%. Turning to `Cc1cc(Nc2cc(N3CCN(C)CC3)nc(Sc3ccc(NC(=O)C4CC4)cc3)n2)n[nH]1` [Tozasertib] + NC(=O)Nc1cc(-c2cccc(F)c2)sc1C(=O)N[C@H]1CCCNC1 [AZD7762] (first compound 0.03 µM, partner dose 0.1 µM), the cell count worked out at 58.3%.

`Cc1cc(Nc2cc(N3CCN(C)CC3)nc(Sc3ccc(NC(=O)C4CC4)cc3)n2)n[nH]1` [Tozasertib] + CN(NC(=O)CC(=O)NN(C)C(=S)c1ccccc1)C(=S)c1ccccc1 [STA4783] (first compound 0.03 µM, partner dose 0.03 µM) displayed a cell count of 70.5%.

Turning to `Cc1cc(Nc2cc(N3CCN(C)CC3)nc(Sc3ccc(NC(=O)C4CC4)cc3)n2)n[nH]1` [Tozasertib] + C=CCn1c(=O)c2cnc(Nc3ccc(N4CCN(C)CC4)cc3)nc2n1-c1cccc(C(C)(C)O)n1 [MK1775] (first compound 0.03 µM, partner dose 0.1 µM), the cell count was 70.7%. Same read-out and setting: the same measure for `Cc1cc(Nc2cc(N3CCN(C)CC3)nc(Sc3ccc(NC(=O)C4CC4)cc3)n2)n[nH]1` [Tozasertib] + Cc1ccc(NC(=O)c2cccc(N(C)C)c2)cc1NC(=O)c1ccc(O)cc1 [ZM336372] (first compound 0.03 µM, partner dose 10 µM): 81.7%; for `CC[C@]1(O)C[C@H]2CN(CCc3c([nH]c4ccccc34)[C@@](C(=O)OC)(c3cc4c(cc3OC)N(C=O)[C@H]3[C@@](O)(C(=O)OC)[C@H](OC(C)=O)[C@]5(CC)C=CCN6CC[C@]43[C@@H]65)C2)C1` [vincristine] + C[C@@H]1CCN(C(=O)CC#N)C[C@@H]1N(C)c1ncnc2[nH]ccc12 [CP690550] (first compound 0.0005 µM, partner dose 5 µM): 36.2%. The same measure, in the same setting: next, `Cc1cc(Nc2cc(N3CCN(C)CC3)nc(Sc3ccc(NC(=O)C4CC4)cc3)n2)n[nH]1` [Tozasertib] + CC(C)(C)c1cnc(CSc2cnc(NC(=O)C3CCNCC3)s2)o1 [SNS-032] (first compound 0.03 µM, partner dose 0.05 µM): 74.2%; `CC[C@]1(O)C[C@H]2CN(CCc3c([nH]c4ccccc34)[C@@](C(=O)OC)(c3cc4c(cc3OC)N(C=O)[C@H]3[C@@](O)(C(=O)OC)[C@H](OC(C)=O)[C@]5(CC)C=CCN6CC[C@]43[C@@H]65)C2)C1` [vincristine] + C=CCn1c(=O)c2cnc(Nc3ccc(N4CCN(C)CC4)cc3)nc2n1-c1cccc(C(C)(C)O)n1 [MK1775] (first compound 0.0005 µM, partner dose 0.1 µM): 41.9%.

`CC[C@]1(O)C[C@H]2CN(CCc3c([nH]c4ccccc34)[C@@](C(=O)OC)(c3cc4c(cc3OC)N(C=O)[C@H]3[C@@](O)(C(=O)OC)[C@H](OC(C)=O)[C@]5(CC)C=CCN6CC[C@]43[C@@H]65)C2)C1` [vincristine] + Cn1cncc1[C@@](N)(c1ccc(Cl)cc1)c1ccc2c(c1)c(-c1cccc(Cl)c1)cc(=O)n2C [tipifarnib] (first compound 0.0005 µM, partner dose 0.05 µM): the cell count was 35.8%. Same read-out and setting: next, `N#CC[C@H](C1CCCC1)n1cc(-c2ncnc3[nH]ccc23)cn1` [ruxolitinib] + NCC(=O)Nc1ccc(-n2nc(C(F)(F)F)cc2-c2ccc3c(ccc4ccccc43)c2)cc1 [OSU03012] (first compound 5 µM, partner dose 5 µM): 61.6%. The same measure, in the same setting: next, `N#CC[C@H](C1CCCC1)n1cc(-c2ncnc3[nH]ccc23)cn1` [ruxolitinib] + CC(C)(C)c1cnc(CSc2cnc(NC(=O)C3CCNCC3)s2)o1 [SNS-032] (first compound 5 µM, partner dose 0.05 µM): 72.1%; `CC[C@]1(O)C[C@H]2CN(CCc3c([nH]c4ccccc34)[C@@](C(=O)OC)(c3cc4c(cc3OC)N(C=O)[C@H]3[C@@](O)(C(=O)OC)[C@H](OC(C)=O)[C@]5(CC)C=CCN6CC[C@]43[C@@H]65)C2)C1` [vincristine] + Cc1cc(N2CCOCC2)cc2[nH]c(-c3c(NC[C@@H](O)c4cccc(Cl)c4)cc[nH]c3=O)nc12 [BMS536924] (first compound 0.0005 µM, partner dose 1 µM): 48.5%. The compound `CC[C@]1(O)C[C@H]2CN(CCc3c([nH]c4ccccc34)[C@@](C(=O)OC)(c3cc4c(cc3OC)N(C=O)[C@H]3[C@@](O)(C(=O)OC)[C@H](OC(C)=O)[C@]5(CC)C=CCN6CC[C@]43[C@@H]65)C2)C1` [vincristine] + CC(C)(C)c1cnc(CSc2cnc(NC(=O)C3CCNCC3)s2)o1 [SNS-032] (first compound 0.0005 µM, partner dose 0.05 µM) registered a cell count of 35.4%.
